Results published in ChEMBL document CHEMBL4888484, “Replenishing the malaria drug discovery pipeline: Screening and hit evaluation of the MMV Hit Generation Library 1 (HGL1) against asexual blood stage Plasmodium falciparum ,using a nano luciferase reporter read-out” (2022).
About 540 (0.36%) of roughly 150,000 compounds showed an effect of 50% or more. The list shows a part of the results.

System: Plasmodium falciparum
Assay: Primary screen in NF54 nanoGlo assay, in single point, at 2uM, 72h; a lower Z score goes with more inhibition
Assay type: functional, Erythrocyte
Conditions: timepoint 72 hour

For `CN(Cc1n[nH]c2c1CCCCC2)C(=O)CN1CCCCCC1=O`, which “% Inhibition” value is on record?
Its value is -8%.

What about the Z score of the same compound?
Its Z score is 1.51.

`COc1ccc(CNC(=O)N2CC[C@H](CCOc3ccc(C)cc3)C2)cc1` was tested. Which “% Inhibition” value did it give?
Its value is -12%.

And the Z score?
Its Z score is 2.36.

Which results are given for `O=C(NCc1cc(F)cc(F)c1)c1cc2n(n1)CCCC2`?
% Inhibition: -4%; Z score: 0.46

For `Cc1ncnc(OCC2CCN(C(=O)c3cscn3)CC2)c1C`, which “% Inhibition” value is on record?
Its value is 7%.

And the Z score?
The Z score was -0.85.

Which results are given for `O=C(CCCn1cccn1)Nc1nnc[nH]1`?
% Inhibition: -12%; Z score: 1.25

How did the “% Inhibition” value turn out when `O=C(N[C@H](c1ccccc1)C1CC1)c1cc(C2CC2)[nH]n1` was run?
Its value is -5%.

And the Z score?
The Z score was 0.85.

What does the source list for `CC(N1C(=O)C2CCCCCN2C1=O)C(C)(C)C` (stereo not drawn)?
% Inhibition: -12%; Z score: 1.66

`Cc1ccc([C@H](CCO)Nc2nc3c(s2)c(C)nn3C)cc1` was tested. Which “% Inhibition” value did it give?
Its value is 1%.

What about the Z score of the same compound?
Its Z score is -0.12.

`COc1cccc(C2C(C(=O)NCc3ccco3)c3ccccc3C(=O)N2C2CC2)c1` (stereo not drawn) was tested. Which “% Inhibition” value did it give?
The value was 9%.

And the Z score?
Its Z score is -0.97.

Which results are given for `O=C1N[C@@H]2c3ccc(Cl)cc3C(=O)N2c2ccccc21`?
% Inhibition: -5%; Z score: 0.57

For `CCCOc1ccc(CCNC(=O)N2CCN(C)CC2)cc1`, which “% Inhibition” value is on record?
Its value is -18%.

What about the Z score of the same compound?
The Z score was 1.6.

Which “% Inhibition” value does the source give for `CCC1(C(=O)NCC[C@H]2CCCNC2)CCCC1` here?
The value was -3%.

What about the Z score of the same compound?
The Z score was 0.38.

What does the source list for `CC(=O)NCCc1nc(Cc2cccs2)nn1CC(C)(C)O`?
% Inhibition: -22%; Z score: 2.31

For `O=S(=O)(c1ccccc1)N(c1ccccc1)C1CCCC1`, which “% Inhibition” value is on record?
Its value is -2%.

What about the Z score of the same compound?
Its Z score is 0.29.

What does the source list for `COc1ccc(NC(=O)c2ccccc2NC(=O)CN(C)CC(=O)NC2CC2)cc1`?
% Inhibition: -12%; Z score: 2.13

What does the source list for `Cc1cc(-c2cccc(C(F)(F)F)c2)c(=O)[nH]n1`?
% Inhibition: -8%; Z score: 1.37

With `COC(=O)c1c(C)n(S(C)(=O)=O)c2ccc(N(C(C)=O)S(C)(=O)=O)cc12` as the compound, how does the “% Inhibition” value read?
The value was -14%.

What about the Z score of the same compound?
Its Z score is 1.89.

Which results are given for `C#CC(CC)(CC)NS(=O)(=O)c1ccc(OC)c(OC)c1`?
% Inhibition: 2%; Z score: -0.49

How did the “% Inhibition” value turn out when `CC(O)CN1CCN(C(C)C(=O)NCCC2=CCCCC2)CC1C` (stereo not drawn) was run?
Its value is -8%.

And the Z score?
Its Z score is 0.92.

`Cc1cc(NC(=O)c2ccncc2)cc2c1OCCO2` was tested. Which “% Inhibition” value did it give?
The value was 37%.

What about the Z score of the same compound?
The Z score was -4.76.

Which results are given for `Cc1cccn2c(NC(=O)[C@H](C3CC3)N3CCCC3)cnc12`?
% Inhibition: -24%; Z score: 2.61

Which “% Inhibition” value does the source give for `CCn1nc(C)c(-c2ccnc(NCCc3nc4ccccc4n3CC)n2)c1C` here?
Its value is -17%.

And the Z score?
The Z score was 1.51.

`Cc1cccc(CN2CCN(C(=O)NCC3CCCCC3)[C@@H](C)C2=O)c1` was tested. Which “% Inhibition” value did it give?
Its value is -7%.

What about the Z score of the same compound?
The Z score was 0.66.

For `O=C(c1onc2c1CCCC2)N1CCC[C@H]1c1ccn[nH]1`, which “% Inhibition” value is on record?
Its value is -10%.

What about the Z score of the same compound?
The Z score was 1.89.
